Measured values from the supplement of paper PMC4967469.
The IC50 comes from the fitted curve, where viability falls to half of the control; where the fit passes the top or lowest dose, that dose stands as a limit. AUC, from the same fit, is the share of area under the viability curve across the 256-fold dose range; values near 1 show little effect. For some of these results: The top dose, if marked as inferred, comes from the curve model; the source does not state it.

Assays:
Experiment in all cases: Viability of human cancer cell lines after 72 h of drug (GDSC screen)
YK 4-279 = compound: COc1ccc(C(=O)CC2(O)C(=O)Nc3c(Cl)ccc(Cl)c32)cc1 [YK 4-279]; conditions: top dose 10 µM
Description: (§1)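 Human cancer cell lines in 384-well plates, medium with 10% serum, drug for 72 h over a 256-fold dose range (nine 2-fold or five 4-fold steps up to the top dose). Adherent lines were fixed and stained with the nucleic acid dye Syto60, suspension lines read with resazurin; signal relative to control wells, capped at 0 and 100%. One two-parameter sigmoid per drug and line, fitted in a mixed model over all curves with the slope shared within a line.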

BMS-345541 = compound: Cc1ccc2nc(NCCN)c3ncc(C)n3c2c1 [BMS-345541]; conditions: top dose 16 µM
Description: as §1

AZD7762 = compound: NC(=O)Nc1cc(-c2cccc(F)c2)sc1C(=O)N[C@H]1CCCNC1 [AZD7762]; conditions: top dose 2 µM
Description: as §1

GSK-650394 = compound: O=C(O)c1ccc(-c2c[nH]c3ncc(-c4ccccc4)cc23)cc1C1CCCC1 [GSK-650394]; conditions: top dose 16 µM; top dose inferred
Description: as §1

NPK76-II-72-1 = compound: COc1cc(C(=O)NC2CCN(C)CC2)ccc1Nc1ncc2c(n1)N(C1CCCC1)C(C)CC(=O)N2C [NPK76-II-72-1]; conditions: top dose 10.24 µM; top dose inferred
Description: as §1

XAV 939 = compound: Oc1nc(-c2ccc(C(F)(F)F)cc2)nc2c1CSCC2 [XAV 939]; conditions: top dose 5 µM; top dose inferred
Description: as §1

Etoposide = compound: COc1cc([C@@H]2c3cc4c(cc3[C@@H](O[C@@H]3O[C@@H]5CO[C@@H](C)O[C@H]5[C@H](O)[C@H]3O)[C@H]3COC(=O)[C@H]23)OCO4)cc(OC)c1O [Etoposide]; conditions: top dose 16 µM
Description: as §1

Bexarotene = compound: C=C(c1ccc(C(=O)O)cc1)c1cc2c(cc1C)C(C)(C)CCC2(C)C [Bexarotene]; conditions: top dose 8 µM
Description: as §1

Cell Line	AUC (YK 4-279)	IC50 (YK 4-279)	AUC (BMS-345541)	IC50 (BMS-345541)	AUC (AZD7762)	IC50 (AZD7762)	AUC (GSK-650394)	IC50 (GSK-650394)	AUC (NPK76-II-72-1)	IC50 (NPK76-II-72-1)	AUC (XAV 939)	IC50 (XAV 939)	AUC (Etoposide)	IC50 (Etoposide)	AUC (Bexarotene)	IC50 (Bexarotene)
NCI-H1648 (lung adenocarcinoma, adherent)	0.663	1.83 µM	0.856	14.2 µM	0.894	> 2 µM	0.9	> 16 µM	0.854	8.86 µM	0.956	> 5 µM	0.847	12.9 µM	0.883	> 8 µM
NCI-H1651 (lung adenocarcinoma, adherent)	0.752	3.56 µM	0.98	> 16 µM	0.819	1.25 µM	0.828	10.9 µM	0.979	> 10.2 µM	0.978	> 5 µM	0.805	8.87 µM	0.901	> 8 µM
NCI-H1666 (lung adenocarcinoma, semi-adherent)	0.846	8.39 µM	0.911	> 16 µM	0.96	> 2 µM	0.986	> 16 µM	0.976	> 10.2 µM	0.869	> 5 µM	0.982	> 16 µM	0.987	> 8 µM
NCI-H1688 (small cell lung carcinoma, adherent)	0.895	> 10 µM	0.838	12.4 µM	0.891	> 2 µM	0.98	> 16 µM	0.628	1.5 µM	0.981	> 5 µM	0.825	11 µM	0.981	> 8 µM
NCI-H1693 (lung adenocarcinoma, adherent)	0.915	> 10 µM	0.955	> 16 µM	0.723	0.805 µM	0.941	> 16 µM	0.977	> 10.2 µM	0.851	> 5 µM	0.861	> 16 µM	0.944	> 8 µM
NCI-H1694 (small cell lung carcinoma, suspension)	0.903	> 10 µM	0.811	8.4 µM	0.801	0.973 µM	0.969	> 16 µM	0.892	> 10.2 µM	0.984	> 5 µM	0.566	1.52 µM	0.987	> 8 µM
NCI-H1755 (lung adenocarcinoma, adherent)	0.766	4.27 µM	0.929	> 16 µM	0.637	0.319 µM	0.975	> 16 µM	0.824	7.39 µM	0.936	> 5 µM	0.9	> 16 µM	0.983	> 8 µM
NCI-H1770 (non-small cell lung carcinoma, suspension)	0.877	7.96 µM	0.941	> 16 µM	0.991	> 2 µM	0.663	2.67 µM	0.8	4.24 µM	0.989	> 5 µM	0.677	2.91 µM	0.992	> 8 µM
NCI-H1781 (lung adenocarcinoma, adherent)	0.863	8.65 µM	0.976	> 16 µM	0.753	0.669 µM	0.861	13.5 µM	0.989	> 10.2 µM	0.974	> 5 µM	0.401	0.536 µM	0.982	> 8 µM
NCI-H1792 (lung adenocarcinoma, adherent)	0.687	1.96 µM	0.818	7.88 µM	0.83	1.09 µM	0.879	13.7 µM	0.97	> 10.2 µM	0.953	> 5 µM	0.883	14.2 µM	0.892	7.81 µM
NCI-H1836 (small cell lung carcinoma, suspension)	0.986	> 10 µM	0.883	> 16 µM	0.956	> 2 µM	0.964	> 16 µM	0.978	> 10.2 µM	0.986	> 5 µM	0.928	> 16 µM	0.972	> 8 µM
NCI-H1838 (lung adenocarcinoma, adherent)	0.973	> 10 µM	0.949	> 16 µM	0.871	> 2 µM	0.984	> 16 µM	0.987	> 10.2 µM	0.97	> 5 µM	0.986	> 16 µM	0.985	> 8 µM
NCI-H1869 (lung squamous cell carcinoma, adherent)	0.859	> 10 µM	0.909	> 16 µM	0.735	0.646 µM	0.981	> 16 µM	0.963	> 10.2 µM	0.961	> 5 µM	0.978	> 16 µM	0.925	> 8 µM
NCI-H1944 (lung adenocarcinoma, adherent)	0.722	2.8 µM	0.633	2.39 µM	0.577	0.206 µM	0.91	> 16 µM	0.789	4.86 µM	0.93	> 5 µM	0.639	2.5 µM	0.925	> 8 µM
NCI-H1975 (lung adenocarcinoma, adherent)	0.813	6.39 µM	0.874	> 16 µM	0.786	1 µM	0.983	> 16 µM	0.954	> 10.2 µM	0.943	> 5 µM	0.681	3.47 µM	0.983	> 8 µM
NCI-H2009 (lung adenocarcinoma, adherent)	0.823	6.31 µM	0.953	> 16 µM	0.791	0.958 µM	0.675	3.18 µM	0.982	> 10.2 µM	0.972	> 5 µM	0.467	0.811 µM	0.964	> 8 µM

Cell Line	AUC (YK 4-279)	IC50 (YK 4-279)	AUC (BMS-345541)	IC50 (BMS-345541)	AUC (AZD7762)	IC50 (AZD7762)	AUC (GSK-650394)	IC50 (GSK-650394)	AUC (NPK76-II-72-1)	IC50 (NPK76-II-72-1)	AUC (XAV 939)	IC50 (XAV 939)	AUC (Etoposide)	IC50 (Etoposide)	AUC (Bexarotene)	IC50 (Bexarotene)
NCI-H2029 (small cell lung carcinoma, adherent)	0.969	> 10 µM	0.936	> 16 µM	0.91	> 2 µM	0.987	> 16 µM	0.862	7.39 µM	0.991	> 5 µM	0.868	12.3 µM	0.992	> 8 µM
NCI-H2081 (small cell lung carcinoma, suspension)	0.97	> 10 µM	0.798	8.09 µM	0.882	> 2 µM	0.949	> 16 µM	0.929	> 10.2 µM	0.986	> 5 µM	0.717	4.29 µM	0.987	> 8 µM
NCI-H2135 (non-small cell lung carcinoma, adherent)	0.99	> 10 µM	0.899	> 16 µM	0.981	> 2 µM	0.939	> 16 µM	0.85	7.42 µM	0.982	> 5 µM	0.785	6.64 µM	0.941	> 8 µM
NCI-H2141 (small cell lung carcinoma, suspension)	0.99	> 10 µM	0.888	> 16 µM	0.92	> 2 µM	0.977	> 16 µM	0.983	> 10.2 µM	0.982	> 5 µM	0.798	7.4 µM	0.991	> 8 µM
NCI-H2172 (non-small cell lung carcinoma, adherent)	0.921	> 10 µM	0.866	> 16 µM	0.942	> 2 µM	0.979	> 16 µM	0.955	> 10.2 µM	0.974	> 5 µM	0.944	> 16 µM	0.982	> 8 µM
NCI-H2227 (small cell lung carcinoma, semi-adherent)	0.908	> 10 µM	0.854	15.3 µM	0.828	1.46 µM	0.984	> 16 µM	0.478	0.555 µM	0.974	> 5 µM	0.949	> 16 µM	0.982	> 8 µM
NCI-H2291 (lung adenocarcinoma, adherent)	0.918	> 10 µM	0.957	> 16 µM	0.9	> 2 µM	0.983	> 16 µM	0.984	> 10.2 µM	0.895	> 5 µM	0.982	> 16 µM	0.983	> 8 µM
NCI-H2342 (lung adenocarcinoma, adherent)	0.962	> 10 µM	0.962	> 16 µM	0.899	> 2 µM	0.611	2.09 µM	0.982	> 10.2 µM	0.801	2.73 µM	0.458	0.757 µM	0.883	> 8 µM
NCI-H2347 (lung adenocarcinoma, adherent)	0.854	> 10 µM	0.883	> 16 µM	0.833	1.69 µM	0.926	> 16 µM	0.967	> 10.2 µM	0.902	> 5 µM	0.795	9.32 µM	0.969	> 8 µM
NCI-H2405 (lung adenocarcinoma, adherent)	0.864	> 10 µM	0.884	> 16 µM	0.949	> 2 µM	0.909	> 16 µM	0.934	> 10.2 µM	0.933	> 5 µM	0.647	2.68 µM	0.915	> 8 µM
NCI-H2444 (non-small cell lung carcinoma, adherent)	0.987	> 10 µM	0.984	> 16 µM	0.733	0.638 µM	0.988	> 16 µM	0.966	> 10.2 µM	0.985	> 5 µM	0.988	> 16 µM	0.988	> 8 µM
NCI-H2452 (mesothelioma, adherent)	0.767	4.44 µM	0.984	> 16 µM	0.816	1.39 µM	0.984	> 16 µM	0.983	> 10.2 µM	0.928	> 5 µM	0.979	> 16 µM	0.966	> 8 µM
NCI-SNU-1 (stomach, suspension)	0.974	> 10 µM	0.666	2.95 µM	0.95	> 2 µM	0.903	> 16 µM	0.827	6.55 µM	0.978	> 5 µM	0.601	1.91 µM	0.988	> 8 µM
NCI-SNU-5 (stomach, suspension)	0.903	> 10 µM	0.935	> 16 µM	0.483	0.112 µM	0.988	> 16 µM	0.989	> 10.2 µM	0.981	> 5 µM	0.821	9.41 µM	0.989	> 8 µM
NKM-1 (acute myeloid leukaemia, suspension)	0.603	1.21 µM	0.587	1.75 µM	0.038	< 0.00781 µM	0.549	1.37 µM	0.495	0.621 µM	0.961	> 5 µM	0.381	0.466 µM	0.867	7.61 µM
